By IC50 is meant the dose at which the fit gives 50% viability; a fit beyond the top or the lowest dose is shown as a bound at that dose. AUC is the area under the same curve over the 256-fold range up to the top dose, as a fraction; values near 1 show little effect. For some of these results: The top dose, if marked as inferred, was calculated from the reported fits. For some of these results: An entry number marks a drug with two screens in the source, which often give different values.
Assays:
Experiment in all cases: Viability of human cancer cell lines after 72 h of drug (GDSC screen)
[1] = compound: COc1cc(F)c(F)c(Nc2ccc(I)cc2F)c1NS(=O)(=O)C1(C[C@H](O)CO)CC1 [RDEA119]; settings: top dose 5 µM, top dose inferred
Method: (§1)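 Human cancer cell lines in 384-well plates, medium with 10% serum, drug for 72 h over a 256-fold dose range (nine 2-fold or five 4-fold steps up to the top dose). Adherent lines were fixed and stained with the nucleic acid dye Syto60, suspension lines read with resazurin; signal relative to control wells, capped at 0 and 100%. One two-parameter sigmoid per drug and line, fitted in a mixed model over all curves with the slope shared within a line.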

[2] = compound: Fc1cc(-c2ccnc(Nc3ccc(-n4cnc(N5CCOCC5)n4)cc3)n2)cc(N2CCOCC2)c1 [JNK-9L]; settings: top dose 5.12 µM; top dose inferred
Method: as §1

[3] = compound: CC(C)(C)c1cc(NC(=O)Nc2ccc(-c3cn4c(n3)sc3cc(OCCN5CCOCC5)ccc34)cc2)no1 [AC220]; settings: top dose 1.024 µM; top dose inferred
Method: as §1

[4] = compound: O=c1[nH]cc(F)c(=O)[nH]1 [5-Fluorouracil]; settings: top dose 32 µM; top dose inferred
Method: as §1

[5] = compound: NCC(=O)Nc1ccc(-n2nc(C(F)(F)F)cc2-c2ccc3c(ccc4ccccc43)c2)cc1 [OSU-03012]; settings: top dose 16 µM; top dose inferred
Method: as §1

[6] = compound: OC[C@H](Cc1ccccc1)Nc1nc(Oc2ccc3c(c2)CCC3)nc2c1ncn2Cc1ccc(-c2ccccc2)cc1 [QS11]; settings: top dose 10.24 µM
Method: as §1

[7] = compound: C#Cc1cccc(Nc2ncnc3cc(OC)c(OCCCCCCC(=O)NO)cc23)c1 [CUDC-101]; settings: top dose 5.12 µM; top dose inferred
Method: as §1

| Cell Line | AUC ([1]; screen: GDSC drug entry 1014) | IC50 ([1]; screen: GDSC drug entry 1014) [µM] | AUC ([1]; screen: GDSC drug entry 1526) | IC50 ([1]; screen: GDSC drug entry 1526) [µM] | AUC [2] | IC50 [2] [µM] | AUC [3] | IC50 [3] [µM] | AUC [4] | IC50 [4] [µM] | AUC [5] | IC50 [5] [µM] | AUC [6] | IC50 [6] [µM] | AUC [7] | IC50 [7] [µM] |
| --- | --- | --- | --- | --- | --- | --- | --- | --- | --- | --- | --- | --- | --- | --- | --- | --- |
| LP-1 (myeloma, suspension) | 0.991 | > 5 | 0.991 | > 5 | 0.568 | 0.473 | 0.916 | > 1.02 | 0.905 | 30 | 0.803 | 6.39 | 0.928 | > 10.2 | 0.487 | 0.297 |
| CAMA-1 (breast, adherent) | – | – | 0.978 | > 5 | 0.921 | > 5.12 | 0.98 | > 1.02 | 0.898 | > 32 | 0.701 | 4.29 | 0.791 | 5.93 | 0.586 | 0.584 |
| TGBC1TKB (biliary tract, adherent) | 0.87 | 4.62 | 0.906 | > 5 | 0.747 | 1.63 | 0.989 | > 1.02 | 0.98 | > 32 | 0.839 | 10.8 | 0.989 | > 10.2 | 0.625 | 0.705 |
| CaR-1 (large intestine, adherent) | 0.796 | 3.83 | 0.896 | > 5 | 0.704 | 1.63 | 0.978 | > 1.02 | 0.916 | > 32 | 0.853 | > 16 | 0.978 | > 10.2 | 0.513 | 0.354 |
| NCI-H28 (mesothelioma, adherent) | 0.842 | > 5 | – | – | 0.553 | 0.467 | 0.98 | > 1.02 | 0.891 | > 32 | 0.849 | > 16 | 0.981 | > 10.2 | 0.962 | > 5.12 |
| KMRC-1 (kidney, adherent) | 0.841 | 3.79 | 0.815 | 2.97 | 0.595 | 0.594 | 0.987 | > 1.02 | 0.977 | > 32 | 0.792 | 7.77 | 0.987 | > 10.2 | 0.597 | 0.601 |
| NCI-H2172 (non-small cell lung carcinoma, adherent) | 0.957 | > 5 | 0.959 | > 5 | 0.779 | 2.89 | 0.911 | > 1.02 | 0.959 | > 32 | 0.881 | > 16 | 0.969 | > 10.2 | 0.978 | > 5.12 |
| SK-ES-1 (Ewing sarcoma, semi-adherent) | 0.947 | > 5 | 0.982 | > 5 | 0.613 | 0.671 | 0.925 | > 1.02 | 0.779 | 14 | 0.598 | 1.89 | 0.768 | 4.1 | 0.53 | 0.388 |
| SCC-15 (head and neck, adherent) | 0.868 | > 5 | 0.748 | 2.1 | 0.581 | 0.575 | 0.98 | > 1.02 | 0.854 | > 32 | 0.716 | 5.1 | 0.936 | > 10.2 | 0.483 | 0.283 |
| NCI-H1395 (lung adenocarcinoma, adherent) | 0.847 | > 5 | 0.927 | > 5 | 0.82 | 4.28 | 0.977 | > 1.02 | 0.961 | > 32 | 0.849 | > 16 | 0.966 | > 10.2 | 0.804 | 3.61 |
| NUGC-4 (stomach, adherent) | 0.854 | 3.95 | 0.518 | 0.351 | 0.741 | 1.57 | 0.988 | > 1.02 | 0.801 | 15.6 | 0.827 | 9.76 | 0.984 | > 10.2 | 0.309 | 0.0934 |
| LAMA-84 (chronic myeloid leukaemia, suspension) | 0.422 | 0.191 | 0.942 | > 5 | 0.805 | 2.63 | 0.978 | > 1.02 | 0.667 | 5.89 | 0.757 | 5.57 | 0.91 | > 10.2 | 0.723 | 1.39 |
| A253 (head and neck, adherent) | 0.81 | 2.54 | 0.886 | > 5 | 0.485 | 0.291 | 0.988 | > 1.02 | 0.949 | > 32 | 0.627 | 2.21 | 0.88 | 10.2 | 0.759 | 1.75 |
| BB49-HNC (head and neck, adherent) | 0.775 | 2.85 | 0.468 | 0.247 | 0.743 | 2.16 | 0.978 | > 1.02 | 0.977 | > 32 | 0.873 | > 16 | 0.969 | > 10.2 | 0.825 | 4.92 |
| NY (osteosarcoma, adherent) | 0.947 | > 5 | 0.925 | > 5 | 0.551 | 0.441 | 0.989 | > 1.02 | 0.962 | > 32 | 0.82 | 9.01 | 0.97 | > 10.2 | 0.983 | > 5.12 |
| KY821 (leukaemia, suspension) | 0.432 | 0.209 | 0.906 | > 5 | 0.797 | 2.07 | 0.989 | > 1.02 | 0.849 | 19.5 | 0.848 | 9.68 | 0.985 | > 10.2 | 0.598 | 0.573 |
| NCI-H1623 (lung adenocarcinoma, adherent) | 0.755 | 2.04 | 0.849 | > 5 | 0.716 | 1.52 | 0.973 | > 1.02 | 0.975 | > 32 | 0.858 | > 16 | 0.943 | > 10.2 | 0.584 | 0.572 |
